The campaign covered roughly 350,000 compounds. About 9,900 (2.8%) were called active. This list was built around the results that the source calls inconclusive (neither active nor inactive); the mix of calls is not that of the screen. Calls follow the shape of the dose curve; as a rule, active = well fitted activation curve with a large enough effect; inconclusive = small, poorly fitted or top-dose-only effect; inactive = no such curve, though single readings can be large or run the other way. No potency is given beside an inconclusive call; the fits are too rough.
test: A quantitative high throughput screen for small molecules that induce DNA re-replication in MCF 10a normal breast cells.; also: nearly all actives have a fitted effect of over 50% in size; as to activity, positive = re-replication: % of control where 0% means no effect; details: MCF 10A DNA re-replication, Hoechst nuclear intensity, 48 h; activity, positive = re-replication: at 46.1 µM (top of the series)
Potency is read from the fitted curve at half-maximal effect; tags tell the direction and shape of the fitted curve.

**Q.** With `CCOC(=O)c1ccccc1NC(=O)COC(=O)c1c(CC)noc1C` as the compound, how does the Potency read?
**A.** inconclusive [activator, partial curve, poor fit]

**Q.** Which Potency does the source give for `CCCNC(=O)CNC(=S)N(Cc1ccccc1F)C1CCCCC1` here?
**A.** inconclusive [activator, single point]

**Q.** With `COC(=O)N/N=C1\CCCc2ccccc21` as the compound, how does the “activity, positive = re-replication” value read?
**A.** inactive: 7.82%

**Q.** With `CCOC(=O)C1(CCOc2ccccc2)CCN(Cc2ccc(OCC)c(CO)c2)CC1` as the compound, how does the Potency read?
**A.** inconclusive [activator, single point]

**Q.** For `CC(C)Cc1nc2sc3c(NCc4ccco4)ncnc3c2c2c1COC(C)(C)C2`, which Potency is on record?
**A.** inconclusive [activator, partial curve]

**Q.** Which “activity, positive = re-replication” value does the source give for `O=C(CSc1ccc([N+](=O)[O-])cc1)Nc1cccc(S(=O)(=O)N2CCOCC2)c1` here?
**A.** inactive: 4.58%

**Q.** Which Potency does the source give for `O=C(NCCOc1ccccc1)c1ncn[nH]1` here?
**A.** inconclusive [activator, full curve, poor fit]

**Q.** Which Potency does the source give for `O=C(Cc1ccc(F)cc1)OCn1nnc2ccccc2c1=O` here?
**A.** inconclusive [activator, single point]

**Q.** For `COc1cccc(-c2coc3cc4oc(=O)c(CC(=O)O)c(C)c4cc23)c1`, which Potency is on record?
**A.** inconclusive [activator, single point]

**Q.** With `O=C(OCc1nnc(-c2ccccc2)o1)c1ccc(-n2cnnn2)cc1` as the compound, how does the Potency read?
**A.** inconclusive [activator, full curve, poor fit]

**Q.** Which Potency does the source give for `CC(C)(C)OC(=O)[C@H](Cc1ccccc1)NC(=O)c1nc[nH]c1C(=O)NCc1ccccc1` here?
**A.** inconclusive [activator, single point]

**Q.** Which Potency does the source give for `Cc1nn(-c2ccccc2)c2nc(N)c(C#N)c(-c3ccc(F)cc3)c12` here?
**A.** active: 16.4 µM

**Q.** For `CC(=O)Nc1ccc(-c2c(C)cc3oc(=O)cc(-c4ccccc4)c3c2C)cc1`, which Potency is on record?
**A.** inconclusive [activator, partial curve, poor fit]

**Q.** For `COc1ccccc1/C=C/C(=O)NCC(=O)N=Nc1c(O)[nH]c2ccccc12`, which “activity, positive = re-replication” value is on record?
**A.** inactive: -4.03%

**Q.** Which Potency does the source give for `Cc1cc(C)c(C(N)=O)c(Nc2cccc(Cl)c2)n1` here?
**A.** inconclusive [activator, full curve, poor fit]

**Q.** With `O=C(Nc1cccc([N+](=O)[O-])c1)Nc1cnccn1` as the compound, how does the “activity, positive = re-replication” value read?
**A.** inactive: 1.63%

**Q.** With `COc1ccccc1-n1c(CNC(=O)COc2ccccc2)n[nH]c1=S` as the compound, how does the “activity, positive = re-replication” value read?
**A.** inactive: -1.35%

**Q.** With `CCOc1cc(CNCCO)cc(Br)c1OCc1ccc(Cl)cc1Cl` as the compound, how does the Potency read?
**A.** inconclusive [activator, single point]

**Q.** For `Cc1ccc(NC(=O)Cn2nc(C(=O)O)c3ccccc3c2=O)c([N+](=O)[O-])c1`, which Potency is on record?
**A.** inconclusive [activator, partial curve, poor fit]

**Q.** With `COC(=O)c1cc(OC)c(OC)cc1NC(=O)c1ccc(C)o1` as the compound, how does the “activity, positive = re-replication” value read?
**A.** inactive: 28.4%

**Q.** Which Potency does the source give for `CCCCN1CCc2c(c3ccccc3n2Cc2ccccc2)C1` here?
**A.** inconclusive [activator, single point]

**Q.** For `O=C(NC1CCCCC1)NC1CCN(S(=O)(=O)Cc2ccccc2)CC1`, which Potency is on record?
**A.** inconclusive [activator, full curve, poor fit]

**Q.** For `COc1cccc(/C=N/NC(=O)C(=O)NCc2cccnc2)c1OC`, which Potency is on record?
**A.** inconclusive [activator, single point]

**Q.** With `Cc1ccc(C)c2[nH]c(=O)c(CN(Cc3ccc4c(c3)OCO4)Cc3nnnn3Cc3ccco3)cc12` as the compound, how does the Potency read?
**A.** inconclusive [activator, partial curve, poor fit]

**Q.** For `CCOC(=O)CSc1nc(-c2ccccc2)nc2ccc(F)cc12`, which Potency is on record?
**A.** inconclusive [activator, partial curve]

**Q.** With `O=[N+]([O-])c1cccc(-c2ccc(/C=N/NC(=S)NCc3ccco3)o2)c1` as the compound, how does the Potency read?
**A.** inconclusive [activator, single point]

**Q.** With `O=S(=O)(c1ccc(Cl)cc1)c1nc(-c2ccccc2F)oc1NCCCN1CCOCC1` as the compound, how does the Potency read?
**A.** inconclusive [activator, single point]

**Q.** Which Potency does the source give for `CCN(CC)S(=O)(=O)c1ccc(N2C(=O)CC2(/C=C/c2ccccc2)C(=O)NC2CCCC2)cc1` (stereo not drawn) here?
**A.** inconclusive [activator, single point]

**Q.** Which Potency does the source give for `COc1ccc(NC(=O)c2ccc(COCC(F)(F)C(F)F)cc2)cc1OC` here?
**A.** inconclusive [activator, full curve, poor fit]

**Q.** With `CC(C)(C)CC(C)(C)NC(=S)Nc1ccc(S(=O)(=O)N2CCOCC2)cc1` as the compound, how does the Potency read?
**A.** inconclusive [activator, partial curve, poor fit]

**Q.** With `COc1ccc(C(C)=O)cc1COc1nc(C)nc2ccccc12` as the compound, how does the Potency read?
**A.** inconclusive [activator, partial curve, poor fit]

**Q.** Which Potency does the source give for `Cc1cccn2c(NCc3ccc4c(c3)OCO4)c(-c3ccc(O)cc3)nc12` here?
**A.** inconclusive [activator, single point]

**Q.** For `O=C(NC(=S)Nc1sc2c(c1C(=O)O)CCCC2)c1ccccc1`, which Potency is on record?
**A.** inconclusive [activator, single point]

**Q.** Which Potency does the source give for `COc1ccc(Cl)cc1C(=O)NCCS(=O)(=O)N1CCN(c2ccccc2F)CC1` here?
**A.** inconclusive [activator, partial curve, poor fit]

**Q.** Which Potency does the source give for `CCOC(=O)c1ccc(N/C=C\C(=O)c2cccc(OC)c2)cc1` here?
**A.** inconclusive [activator, partial curve, poor fit]

**Q.** With `O=C(c1ccccc1Cl)N1CCN(c2ncccn2)CC1` as the compound, how does the Potency read?
**A.** inconclusive [activator, single point]

**Q.** Which Potency does the source give for `Cc1ccc2c(c1)c1ncnc(N3CCOCC3)c1n2C` here?
**A.** inconclusive [activator, partial curve, poor fit]

**Q.** Which Potency does the source give for `COc1cccc(N2CCN(S(=O)(=O)c3ccc(-c4coc(C)n4)cc3)CC2)c1` here?
**A.** inconclusive [activator, partial curve, poor fit]

**Q.** Which Potency does the source give for `CCOc1cc(/C=N/N=C(N)N)ccc1OCc1ccc(Cl)cc1` here?
**A.** active: 18.4 µM

**Q.** Which Potency does the source give for `CCSc1nc2ccccc2n1CCC(=O)O` here?
**A.** inconclusive [activator, partial curve, poor fit]

**Q.** Which Potency does the source give for `O=C(N/N=C/C=C/c1ccccc1)c1cc2c(ccc3ccccc32)o1` here?
**A.** inconclusive [activator, full curve, poor fit]

**Q.** Which “activity, positive = re-replication” value does the source give for `CC(C)Oc1ccc(CCC(=O)NNC(=S)NCc2ccccc2)cc1` here?
**A.** inactive: 0.118%

**Q.** For `CCn1c2ccccc2c2cc(NC(=O)CSc3nnc(-c4cccc(C)c4)o3)ccc21`, which Potency is on record?
**A.** inconclusive [activator, single point]

**Q.** With `O=C(NCC1(c2ccccc2)CCCC1)c1ccc(Br)cc1` as the compound, how does the Potency read?
**A.** inconclusive [activator, partial curve, poor fit]

**Q.** With `COC(=O)/C=C1\SC(=Nc2ccc(OC)cc2)NC1=O` as the compound, how does the Potency read?
**A.** active: 3.66 µM

**Q.** Which “activity, positive = re-replication” value does the source give for `O=C(NCCC(=O)N1CCN(c2ccccn2)CC1)c1ccc([N+](=O)[O-])cc1` here?
**A.** inactive: 4.23%

**Q.** Which “activity, positive = re-replication” value does the source give for `Nc1nnc(SCC(=O)Nc2ccc(N3CCOCC3)c(Cl)c2)s1` here?
**A.** inactive: 7.39%

**Q.** Which Potency does the source give for `Cc1ccc(C(=O)/C=C/NCc2ccc(F)cc2)cc1` here?
**A.** inconclusive [activator, partial curve]

**Q.** With `COc1ccc(CCNC(=O)C2CC(c3cc(C(F)(F)F)cc(C(F)(F)F)c3)=NO2)cc1` (stereo not drawn) as the compound, how does the “activity, positive = re-replication” value read?
**A.** inactive: -1.78%

**Q.** With `COc1cc(NC(=S)Nc2ccc3c(c2)OCCO3)cc(OC)c1OC` as the compound, how does the “activity, positive = re-replication” value read?
**A.** inactive: 1.46%

**Q.** For `COc1ccc(-n2nnnc2SCC(=O)Nc2ccc3c(c2)OCCO3)c(OC)c1`, which “activity, positive = re-replication” value is on record?
**A.** inactive: 0.543%

**Q.** For `CCOc1ccc(CCNC(=O)CSc2nn(-c3ccc(C)c(Cl)c3)c(=S)s2)cc1OCC`, which Potency is on record?
**A.** inconclusive [activator, partial curve, poor fit]

**Q.** Which “activity, positive = re-replication” value does the source give for `Cc1ccnc(NC2(C(F)(F)F)N=C3SCCN3C2=O)c1` (stereo not drawn) here?
**A.** inactive: -9.88%

**Q.** With `O=c1[nH]c(C(F)(F)F)nc2ccc3ccccc3c12` as the compound, how does the “activity, positive = re-replication” value read?
**A.** inactive: 21.5%

**Q.** With `O=C(COc1ccc(Cl)cc1)NNC(=S)NCc1ccccc1` as the compound, how does the “activity, positive = re-replication” value read?
**A.** inactive: 2.76%

**Q.** With `O=C(N=C1SC2CS(=O)(=O)CC2N1Cc1ccc(Cl)cc1)C1CC1` (stereo not drawn) as the compound, how does the “activity, positive = re-replication” value read?
**A.** inactive: -1.13%

**Q.** For `CCc1ccc(-c2cc(C(F)(F)F)n3nc(C(=O)Nc4c(C)nn(Cc5ccccc5Cl)c4C)cc3n2)s1`, which Potency is on record?
**A.** active: 3.26 µM

**Q.** For `Cc1csc2c(N3CCN(C(=O)Nc4ccc(OC(F)(F)F)cc4)CC3)ncnc12`, which Potency is on record?
**A.** inconclusive [activator, partial curve, poor fit]

**Q.** With `Cc1ccc2cc3c(NC(=O)c4cccnc4)nn(C)c3nc2c1` as the compound, how does the Potency read?
**A.** inconclusive [activator, partial curve, poor fit]

**Q.** For `O=c1cc(-c2ccccc2)nc(N2CCN(Cc3ccc4c(c3)OCO4)CC2)[nH]1`, which Potency is on record?
**A.** inconclusive [activator, partial curve, poor fit]

**Q.** Which Potency does the source give for `COc1ccc(CN2CCC3CC2c2cc(Cl)ccc23)cc1` (stereo not drawn) here?
**A.** inconclusive [activator, partial curve, poor fit]

**Q.** For `N#Cc1c(N2CCOCC2)nc(N)c2c(N)nc3c(c12)CC(CCl)O3` (stereo not drawn), which Potency is on record?
**A.** inconclusive [activator, single point]

**Q.** For `Cc1cc(NCc2ccccn2)n2nc(C)c(-c3ccccc3)c2n1`, which “activity, positive = re-replication” value is on record?
**A.** inactive: 5.77%

**Q.** With `CCCCCCSc1cc(-c2nc3cc(C)ccn3c2NCCCC)ccc1OC` as the compound, how does the Potency read?
**A.** inconclusive [activator, single point]

**Q.** With `COc1ccccc1-n1c(SCc2cc(=O)oc3cc(O)ccc23)nc2ccccc2c1=O` as the compound, how does the Potency read?
**A.** inconclusive [activator, partial curve]

**Q.** For `O=C(C=Cc1ccccn1)c1ccccc1`, which Potency is on record?
**A.** active: 3.26 µM

**Q.** With `Cc1ccc(C(=O)NC(=S)Nc2ccc3[nH]c(=O)[nH]c3c2)cc1` as the compound, how does the “activity, positive = re-replication” value read?
**A.** inactive: 7.68%

**Q.** For `Cc1cc(-c2cc(-c3ccccc3)on2)nc(NCC2CC2)n1`, which Potency is on record?
**A.** active: 18.4 µM
